The record followed here is publication PMC12136788.

The other results are listed elsewhere or left out.

Sequences and labels used below:
T1: UNK ZnF1-6 (called full-length) (human, UniProt Q9C0B0 30-357)
T1 sequence: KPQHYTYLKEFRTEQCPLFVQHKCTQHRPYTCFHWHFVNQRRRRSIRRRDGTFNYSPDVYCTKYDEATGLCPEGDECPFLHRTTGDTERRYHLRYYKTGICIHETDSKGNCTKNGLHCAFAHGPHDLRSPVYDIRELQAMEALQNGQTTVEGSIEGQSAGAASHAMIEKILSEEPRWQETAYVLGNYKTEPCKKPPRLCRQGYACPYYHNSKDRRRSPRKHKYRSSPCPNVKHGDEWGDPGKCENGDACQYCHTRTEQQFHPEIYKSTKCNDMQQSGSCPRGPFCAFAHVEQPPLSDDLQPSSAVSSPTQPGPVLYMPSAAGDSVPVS

B1: chr5:136174412:136174513:+|CDS|ENSG00000113658|unk|total|mutant (ssRNA)
RNA: GGGAGUUCUACAGUCCGACGAUCUAUGUUGGUGGAGAGGUGUAUGCGGAAUGCCUCAGUGACAGCAGCAUAUUUGUACAGAGCCGGAACUGCAACUUUCAUCAUGGCUUUCAUCCCACCACUGUCUGUAAGAUUCCCAGCAGCCAACAGAGGAUUGAGCAUCA
B2: chr16:74623592:74623693:-|3pUTR|ENSG00000168411|msi1|total|mutant (ssRNA)
RNA: GGGAGUUCUACAGUCCGACGAUCCCAUUAUUGUAUGUUGGAAAUUCUUAUUUUCUUUAUUUUCUGUGUGACUUUCUGGACCUCCGAGAGUGUCCUCUCAUCAUCCCGGAUGUGAGUGGGCAUCAAGCAUUUUCUGGGGAAUAUCAACAGAGGAUUGAGCAUCA
B3: chr1:67426168:67426278:-|CDS|ENSG00000142864|unk|FALSE|unique (ssRNA)
RNA: GGGAGUUCUACAGUCCGACGAUCAUAAGACGAGUUGGAAGAAGACCUGAUCAACAACUUCAGGGUGAAGGGAAAAUAAUUGAUAGAAGACCAGAAAGGCGACCACCUCGUGAACGAAGAUUCGAAAAGCCACUUGAAGAAAAGCAACAGAGGAUUGAGCAUCA
B4: ENSG00000145990:stop:overlap|stop_codon|ENSG00000145990|stop_codon|NA|stop_codon (ssRNA)
RNA: GGGAGUUCUACAGUCCGACGAUCUGAGCCCCGCCUACCUGAUCAGCGAGGCCAUGCGCCGCAGCAGGAUGUCCCUCUACUGUUAGCACAGAUUGAGAACCUCGGGGACUUGAGCCUUCUGCAGGGGAUGUCCACAGAGAGGGACAACAGAGGAUUGAGCAUCA
B5: chr11:46383557:46383658:+|3pUTR|ENSG00000110492|msi1_unk|FALSE|overlapping (ssRNA)
RNA: GGGAGUUCUACAGUCCGACGAUCCCACGCCCUCCCUCUCCCAGGCCCGAGAUGUGACCCACCAGUGCCUUCUGUCUGCUCGUUAGCUUUAAUCAAUCAUGCCCUGCCUUGUCCCUCUCACUCCCCAGCCCCACCCCUAAGUGCCAACAGAGGAUUGAGCAUCA
B6: chr17:63423787:63423888:+|3pUTR|ENSG00000170921|msi1|FALSE|bound_elsewhere (ssRNA)
RNA: GGGAGUUCUACAGUCCGACGAUCCUAACUCAAGCCCCAGCCUCUUUCCACACUCCCUGAUACCUAAGGACUGCUUUCUCAGCUAGACCAGGGUGGGCAUCAGCGACGCCUUCUCAGCUAGACCAGGGUAGGCAUCAGCGUCCUCAACAGAGGAUUGAGCAUCA
B7: chr11:102396659:102396760:-|3pUTR|ENSG00000152558|msi1_unk|total|mutant (ssRNA)
RNA: GGGAGUUCUACAGUCCGACGAUCCUUUUUCUCUGUAUGUAAGCCGUAUAAUUUGUUACUUUCAAAUACCCGUACUUUGAAUGCCGGUUUUUUUGUUGUUGUUAUCUAUAAAAAUUGAGGGAAAUGGUUAUGCAAAAAAAUAUUCAACAGAGGAUUGAGCAUCA
B8: chr16:46798953:46799054:-|3pUTR|ENSG00000155330|unk|total|mutant (ssRNA)
RNA: GGGAGUUCUACAGUCCGACGAUCUCUAUAUUUUUUUCUUUGCCUUAUUGCACUGGUUGGGACUUUUUGCCUUGAUCCAGUUGCCGGGGGGAAACAUUCAGUCAUUAAGCAUUAAAUAACUUUGUUGUUGUUGUGGGCUUGAAACAACAGAGGAUUGAGCAUCA
B9: chr17:67075675:67075776:-|3pUTR|ENSG00000198265|unk|FALSE|unique (ssRNA)
RNA: GGGAGUUCUACAGUCCGACGAUCAUUCCUUAUUUCCAUAGCCAGUCAAGGAUUCUAACGCUGCUUCCAUCUGAUACUCUUCUUAGAUUCUGCAUCAAAUGCUUAUUUUGACUUACAACAAGCUUACUCUUCCUCAGCAUUACACAACAGAGGAUUGAGCAUCA
B10: chr3:89481969:89482070:+|3pUTR|ENSG00000044524|msi1|FALSE|unique (ssRNA)
RNA: GGGAGUUCUACAGUCCGACGAUCAUAUGUGUUUACUUUAAACUUGUCUUUUCAAAAUAUUACUCAGUUUAUGUUGUACAAUGUAGAUGGCCUCUUACUAAUGUAAAAUGAUUUGUAGUGGAAACAUUUAUAUUUUUAUAAUAACAACAGAGGAUUGAGCAUCA
B11: ENSG00000164985:stop:overlap|stop_codon|ENSG00000164985|stop_codon|NA|stop_codon (ssRNA)
RNA: GGGAGUUCUACAGUCCGACGAUCAGCCAUCCAGUGAAGAGAGAGAGACUGAAAUAUCUCUGAAGGAUUCUACACUAGAUAACUAGGUUGACAUACCUGGAAUAUAGAGAACACUUGAGAAGUUUGUAAUGGUUUUCAUUUGAACAACAGAGGAUUGAGCAUCA
B12: chr6:43186014:43186115:+|CDS|ENSG00000112659|msi1|total|mutant (ssRNA)
RNA: GGGAGUUCUACAGUCCGACGAUCCUGCUUUUCUCCUUGGUGAAGCGCUACCUUUGUGUCACGUCCCUCCUGGAUCAGCUGAACCGCAGUCCAGAGCUGGGAGCUGGAGACCAAAGCUCCCCAUGUGCCACAAGAGAGAAAAGCCAACAGAGGAUUGAGCAUCA
B13: chr3:49886901:49887562:-|three_prime_utr|ENSG00000164078|control|control|control (ssRNA)
RNA: GGGAGUUCUACAGUCCGACGAUCCCAAGUGAUGCAGCAAUGCUGGGAGGCAGACCCAGCAGUGCGACCCACCUUCAGAGUACUAGUGGGGGAGGUGGAGCAGAUAGUGUCUGCACUGCUUGGGGACCAUUAUGUGCAGCUGCCCAACAGAGGAUUGAGCAUCA
B14: chr12:1788447:1788559:+|3pUTR|ENSG00000006831|unk|total|mutant (ssRNA)
RNA: GGGAGUUCUACAGUCCGACGAUCUUUCUUUUUUGGCCCCCGGCUGGUUGGGACCUCUACAGCUUCAUUCUUUCACCAUUAAACCGUGGCCUUUUUCAGUAUUUUCCCUCUUCCCCUUUAUAAAUUAUGCUAAAGCCACAAAGCCAACAGAGGAUUGAGCAUCA
B15: chr2:167954955:167954998:-|3pUTR|ENSG00000198648|msi1_unk|FALSE|overlapping (ssRNA)
RNA: GGGAGUUCUACAGUCCGACGAUCGUUGUAUUUAGAAAUUAAUAUACUUAUAAAAUUAAGAUUUAUUAGCCAAACUUGAAUUCUAGUUUUAAAACUGACUGUGAAUUUUAUUUUUCAUAUAUUUAUGCAUUACACACCUUAGCUCAACAGAGGAUUGAGCAUCA
B16: chr15:75657416:75657517:+|3pUTR|ENSG00000173548|msi1|total|mutant (ssRNA)
RNA: GGGAGUUCUACAGUCCGACGAUCCAUGGGUGCCCCUGGGAAAUUCCCCACUCCUCCGAAGUGGGGCACAGCAGGGGUGAGAACCGAGUCAGGAGCCCUCGAGGCCAAGGCCUGGGCUGCCGGUCAGUCAGUGAAGGUCAGGCCCAACAGAGGAUUGAGCAUCA
B17: chr19:34227675:34227687:+|3pUTR|ENSG00000257103|msi1_unk|total|mutant (ssRNA)
RNA: GGGAGUUCUACAGUCCGACGAUCUUAAAACAUGAGCAUUAAAUAUAUUUGGAACCGCAGAAGGUUAAGUAAUUUCUUAUGUACCGUUAAACUAAAGCAGUACUUCAGUGGGACUUAACAAGUAUUUUUUCAUCACUGAAAGGUCAACAGAGGAUUGAGCAUCA
B18: chr17:15565482:15566353:-|three_prime_utr|ENSG00000241322|control|control|control (ssRNA)
RNA: GGGAGUUCUACAGUCCGACGAUCCACCCAAAGAAAAAGUCUUGGAAAAUCCCUAUGUCACCUGACCAAUUCCUCCUGACUGUUAGCGCCCUGCAGCACGCCCGUAAUUCCGGGGAAUUUGCCUAUCCCUGUAGGCCCCAAACACAACAGAGGAUUGAGCAUCA
B19: chr20:4700211:4700532:+|3pUTR|ENSG00000171867|msi1|FALSE|unique (ssRNA)
RNA: GGGAGUUCUACAGUCCGACGAUCUUGCCUGGAUACCUCUGGCUCCUUCAGCAGCUAGAGCUCAGUAUACUAAUGCCCUAUCUUAGUAGAGAUUUCAUAGCUAUUUAGAGAUAUUUUCCAUUUUAAGAAAACCCGACAACAUUUCAACAGAGGAUUGAGCAUCA
B20: ENSG00000070961:be:win_3001|CDS|ENSG00000070961|bound_else_gene|NA|bound_elsewhere_windowed (ssRNA)
RNA: GGGAGUUCUACAGUCCGACGAUCGAAGGAAUCUUUAACAAUGCCAUCUUCUGCACAAUUGUUUUAGGCACUUUUGUGGUACAGAUAAUAAUUGUGCAGUUUGGUGGAAAACCUUUCAGUUGUUCAGAACUUUCAAUAGAACAGCAACAGAGGAUUGAGCAUCA
B21: chr11:61873518:61873813:-|three_prime_utr|ENSG00000221968|control|control|control (ssRNA)
RNA: GGGAGUUCUACAGUCCGACGAUCCCCUCACAUGUGUAUUCAGCAGCCCUAUGGCCUUGGCUCUGGGCCUGAUGGGACAGGGGUAGAGGGAAGGUGAGCAUAGCACAUUUUCCUAGAGCGAGAAUUGGGGGAAAGCUGUUAUUUCAACAGAGGAUUGAGCAUCA
B22: chr11:119024350:119024909:-|three_prime_utr|ENSG00000137700|control|control|control (ssRNA)
RNA: GGGAGUUCUACAGUCCGACGAUCUCCCACGGUGGCCUUCCCCCUGCACGCUCUGCGGGGAGAAAAGGAGGGGCCUGCCUGGCUAGCCCUGAACCUUUCACUUUCCAUUUCUGCGCCUUUUCUGUCACCCGGGUGGCGCUGGAACAACAGAGGAUUGAGCAUCA

The target in the assay is T1, UNK ZnF1-6 (called full-length). In words: nsRBNS (natural sequence RNA bind-n-seq); RBNS binding buffer (assumed for nsRBNS): 25 mM Tris pH 7.5, 150 mM KCl, 3 mM MgCl2, 0.01% Triton X-100, 500 ug/ml BSA, 20 U/ml SUPERase-In, 4 C; UNK is unkempt and MSI1 is Musashi-1; names of the RNAs are library labels; protein concentration not given here; high values mean tight binding.
The molecule B1 registered a binding signal of 0.849 enrichment R.

For B2, the binding signal worked out at 0.651 enrichment R.

As for B3, the binding signal was determined as 0.71 enrichment R.

B4 displayed a binding signal of 0.325 enrichment R.

With B5, the binding signal turned out to be 3.87 enrichment R.

For the molecule B6, the binding signal came out at 0.982 enrichment R.

B7 came in with a binding signal of 0.897 enrichment R.

B8 yielded a binding signal of 0.654 enrichment R.

Turning to B9, the binding signal worked out at 1.05 enrichment R.

Molecule B10 displayed a binding signal of 1.68 enrichment R.

Take B11: the binding signal came out at 2.89 enrichment R.

Molecule B12 gave a binding signal of 0.544 enrichment R.

As to B13, the binding signal is 0.753 enrichment R.

For B14, the binding signal was determined as 0.797 enrichment R.

Molecule B15 came in with a binding signal of 15.2 enrichment R.

B16 gave a binding signal of 0.43 enrichment R.

Turning to B17, the binding signal turned out to be 0.46 enrichment R.

Molecule B18 showed a binding signal of 0.988 enrichment R.

B19 gave a binding signal of 6.53 enrichment R.

Molecule B20 came in with a binding signal of 0.611 enrichment R.

As for B21, the binding signal amounted to 1.12 enrichment R.

For B22, the binding signal is 0.719 enrichment R.
